{"source": "paper PMC4336329", "about": "(PLoS ONE, 2015)", "note": "The campaign covered roughly 310,000 compounds. About 14,000 (4.5%) showed an effect of 50% or more. Effects have a minus sign here. The list shows a part of the results.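 Further: peak tail current of the secondary pulse compared with the same well before compound.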"}
{"target": "human ether-à-go-go-related gene (hERG) potassium channel (human, UniProt Q12809)", "sequence (Q12809 whole entry, looked up)": "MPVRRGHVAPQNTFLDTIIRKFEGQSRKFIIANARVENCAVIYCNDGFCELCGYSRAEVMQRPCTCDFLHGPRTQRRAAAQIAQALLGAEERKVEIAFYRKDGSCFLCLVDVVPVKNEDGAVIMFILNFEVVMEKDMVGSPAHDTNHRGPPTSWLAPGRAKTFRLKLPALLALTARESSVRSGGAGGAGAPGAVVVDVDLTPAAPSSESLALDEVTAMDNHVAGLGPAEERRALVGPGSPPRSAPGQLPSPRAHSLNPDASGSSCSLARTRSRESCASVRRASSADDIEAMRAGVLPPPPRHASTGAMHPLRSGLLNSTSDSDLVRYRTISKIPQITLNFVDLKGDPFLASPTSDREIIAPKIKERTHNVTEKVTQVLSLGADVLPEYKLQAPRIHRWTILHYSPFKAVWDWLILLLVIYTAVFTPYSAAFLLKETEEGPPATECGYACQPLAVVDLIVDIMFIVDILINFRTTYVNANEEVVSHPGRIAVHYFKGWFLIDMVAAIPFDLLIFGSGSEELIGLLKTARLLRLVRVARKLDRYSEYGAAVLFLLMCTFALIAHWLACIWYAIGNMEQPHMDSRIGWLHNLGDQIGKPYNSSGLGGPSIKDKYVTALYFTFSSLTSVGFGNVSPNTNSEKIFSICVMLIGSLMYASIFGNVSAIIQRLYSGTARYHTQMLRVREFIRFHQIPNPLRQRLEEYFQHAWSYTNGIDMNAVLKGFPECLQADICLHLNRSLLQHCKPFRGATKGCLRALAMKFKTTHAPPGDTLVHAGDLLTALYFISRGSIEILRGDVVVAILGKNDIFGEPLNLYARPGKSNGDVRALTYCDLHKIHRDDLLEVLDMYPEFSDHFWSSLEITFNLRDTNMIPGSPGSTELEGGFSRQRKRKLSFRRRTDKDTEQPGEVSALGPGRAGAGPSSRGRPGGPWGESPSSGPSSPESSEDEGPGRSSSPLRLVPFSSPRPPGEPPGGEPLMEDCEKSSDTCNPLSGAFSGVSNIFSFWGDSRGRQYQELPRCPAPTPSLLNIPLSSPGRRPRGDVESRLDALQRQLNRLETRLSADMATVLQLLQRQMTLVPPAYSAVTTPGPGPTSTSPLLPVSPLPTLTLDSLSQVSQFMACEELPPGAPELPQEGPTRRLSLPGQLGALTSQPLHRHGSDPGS", "assay": "primary screen, population patch clamp on CHO cells stably expressing hERG", "units": {"hERG current change (%, negative = inhibition) at 10uM": "%"}}
{"smiles": "CCOc1cc(/C=C/c2ccc3cccc([N+](=O)[O-])c3n2)ccc1O", "hERG current change (%, negative = inhibition) at 10uM": -17.8}
{"smiles": "CN(C)CCCN1C(=O)c2cc3ccccc3cc2C1=O", "hERG current change (%, negative = inhibition) at 10uM": -16}
{"smiles": "N#C/C(=N\\Nc1cccc2ccccc12)c1nnc2n1CCCCC2", "hERG current change (%, negative = inhibition) at 10uM": 1.66}
{"smiles": "COc1cccc(NC(=O)CCSc2ccc(C)cc2)c1", "hERG current change (%, negative = inhibition) at 10uM": -3.22}
{"smiles": "COc1cccc(NC(=O)C2CCCN2C(=O)OCc2ccccc2)c1", "note": "(stereo not shown)", "hERG current change (%, negative = inhibition) at 10uM": -9.77}
{"smiles": "CCC(C)NC(=O)C1CCN(S(=O)(=O)c2ccc3nc4c(c(C(=O)O)c3c2)CCCCC4)CC1", "note": "(stereo not shown)", "hERG current change (%, negative = inhibition) at 10uM": 11.2}
{"smiles": "CC(NCc1ccccc1O)c1ccccc1", "note": "(stereo not shown)", "hERG current change (%, negative = inhibition) at 10uM": 6.03}
{"smiles": "COc1ccc2oc(=O)c(C(=O)NCC3CCCO3)cc2c1", "note": "(stereo not shown)", "hERG current change (%, negative = inhibition) at 10uM": 3.67}
{"smiles": "Cc1occc1-c1nnc(SCC(=O)Nc2ccccc2N2CCCCC2)n1C", "hERG current change (%, negative = inhibition) at 10uM": -38}
{"smiles": "Clc1ccc(CN2CCSCC2)c(Cl)c1", "hERG current change (%, negative = inhibition) at 10uM": 12}
{"smiles": "COc1ccc(C(=O)/C=C2\\NCCc3cc(OC)c(OC)cc32)cc1OC", "hERG current change (%, negative = inhibition) at 10uM": 11.6}
{"smiles": "COC(=O)c1ccc(NC(=O)CCCCCn2nnc3ccccc3c2=O)cc1", "hERG current change (%, negative = inhibition) at 10uM": 11.7}
{"smiles": "COc1ccc(CN(Cc2ccncc2)C(=O)CCC(=O)O)cc1", "hERG current change (%, negative = inhibition) at 10uM": 0.89}
{"smiles": "CC(=O)Oc1ccc(C(=O)Nc2cccc(C(=O)Nc3ccccc3C(=O)O)c2)cc1", "hERG current change (%, negative = inhibition) at 10uM": 21.5}
{"smiles": "COCCCNC(=O)CN(Cc1ccc(Cl)cc1)S(C)(=O)=O", "hERG current change (%, negative = inhibition) at 10uM": 10.1}
{"smiles": "CCc1nnc(SCCSc2nnc(CC)n2N)n1N", "hERG current change (%, negative = inhibition) at 10uM": 13.9}
{"smiles": "COCC(=O)N(CCc1ccccc1)Cc1cc2cc(C)ccc2nc1Cl", "hERG current change (%, negative = inhibition) at 10uM": -13.6}
{"smiles": "CCN(CC)S(=O)(=O)c1cc([N+](=O)[O-])ccc1N=Nc1c(O)n(C)c2ccccc12", "hERG current change (%, negative = inhibition) at 10uM": 3.43}
{"smiles": "CCOc1ccc(C(CC(=O)O)NC(=O)CCCOc2ccc(Cl)cc2C)cc1", "note": "(stereo not shown)", "hERG current change (%, negative = inhibition) at 10uM": 5.77}
{"smiles": "O=C(Cc1ccc(O)cc1)N/N=C/c1cccnc1", "hERG current change (%, negative = inhibition) at 10uM": 10.2}
{"smiles": "Cc1ccccc1Nc1nnc(-c2ccc(C(=O)NCCO)cc2)c2ccccc12", "hERG current change (%, negative = inhibition) at 10uM": -65.9}
{"smiles": "COCCN1CC(C(=O)NCc2ccccc2-n2ccnc2C)CCC1=O", "note": "(stereo not shown)", "hERG current change (%, negative = inhibition) at 10uM": 1.14}
{"smiles": "CCN(CC(=O)Nc1cccc(C(C)=O)c1)S(=O)(=O)c1ccc(C)cc1", "hERG current change (%, negative = inhibition) at 10uM": -15.3}
{"smiles": "Cc1cc(C(=O)NNC(=O)NC(C)C)no1", "hERG current change (%, negative = inhibition) at 10uM": 15.3}
{"smiles": "O=C(CC12CC3CC(CC(Br)(C3)C1)C2)Nc1cccc(S(=O)(=O)NC2=NCCC2)c1", "hERG current change (%, negative = inhibition) at 10uM": -4.79}
